In a collection of fitness landscapes (doi:10.1016/j.celrep.2020.107928):
In all, about 81,000 sequences were measured (“one-hybrid fitness for binding NBS DNA”: median about -0.1, highest 2% from about 0.36 on). This is one part of the list.

B1: Caulobacter ParB omega fusion; a variant is named by its letters at X, in order, B8GW30 (parent)
chain: MESVVVGEPGMSEGRRGLGRGLSALLGEVDAAPAQAPGEQLGGSREAPIEILQRNPDQPRRTFREEDLEDLSNSIREKGVLQPILVRPSPDTAGEYQIVAGERAWRAAQRAGLKTVPIMVRELDDLAVLEIGIIENVQRADLNVLEEALSYKVLMEKFERTQENIAQTIGKSXSHVANXMRLLXLPDEVQSYLVSGELTAXHARAIAAAADPVALAKQIIEGGLSVRETEALARKAPNLSAGKSKGGRPPRVKDTDTQALESDLSSVLGLDVSIDHRGSTGTLTITYATLEQLDDLCNRLTRGI

Variants of: B1
Assay: one-hybrid fitness for binding NBS DNA (the Noc-binding site; scaled: cognate 1, non-cognate 0); higher = stronger binding
Conditions: with NBS DNA site
In short: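 Pre- and post-selection plasmids were Illumina-sequenced, three replicate libraries were pooled, and any variant with under 10 reads was removed. The libraries were Caulobacter ParB with four specificity codons randomised, selected in E. coli USO through a HIS3 reporter whose site is 19 bp from the promoter. Cells grew 48 hours at 37°C on M9 without histidine, with 0.1 mM IPTG and 5 mM 3-AT. Fitness is the log change in variant-to-wild-type read ratio, rescaled against cognate and non-cognate.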

Row | Variant | one-hybrid fitness for binding NBS DNA
1 | LCHI | ≤ 0.2
2 | HSGS | ≤ 0.2
3 | QSSE | ≤ 0.2
4 | DLCS | ≤ 0.2
5 | RVYC | ≤ 0.2
6 | NVPR | ≤ 0.2
7 | YMQL | ≤ 0.2
8 | PHWG | ≤ 0.2
9 | PVWV | ≤ 0.2
10 | APFR | ≤ 0.2
11 | GSER | ≤ 0.2
12 | VNFP | ≤ 0.2
13 | PEYV | ≤ 0.2
14 | YANC | ≤ 0.2
15 | LGHL | ≤ 0.2
16 | VHMT | ≤ 0.2
17 | IPLI | ≤ 0.2
18 | HMLW | ≤ 0.2
19 | PALQ | ≤ 0.2
20 | KNSC | ≤ 0.2
21 | GMHG | ≤ 0.2
22 | APVR | ≤ 0.2
23 | YMVT | ≤ 0.2
24 | CVDC | ≤ 0.2

Row | Variant | one-hybrid fitness for binding NBS DNA
25 | GTNL | ≤ 0.2
26 | SRTM | ≤ 0.2
27 | MQSP | ≤ 0.2
28 | IFAR | ≤ 0.2
29 | ISSY | ≤ 0.2
30 | SCNY | ≤ 0.2
31 | HKRS | ≤ 0.2
32 | LLDR | ≤ 0.2
33 | TAVE | ≤ 0.2
34 | PCTP | ≤ 0.2
35 | HNQC | ≤ 0.2
36 | KYLE | ≤ 0.2
37 | RYYP | ≤ 0.2
38 | FENS | ≤ 0.2
39 | EHAT | ≤ 0.2
40 | HLLG | ≤ 0.2
41 | EYEG | ≤ 0.2
42 | RWCV | ≤ 0.2
43 | KFQA | ≤ 0.2
44 | SCMS | ≤ 0.2
45 | DLLG | ≤ 0.2
46 | RRKQ | 0.436
47 | NKYG | ≤ 0.2
48 | VFSG | ≤ 0.2

Row | Variant | one-hybrid fitness for binding NBS DNA
49 | RVFD | ≤ 0.2
50 | CPEY | ≤ 0.2
51 | GCCG | ≤ 0.2
52 | WFSC | ≤ 0.2
53 | LHAD | ≤ 0.2
54 | YCSR | ≤ 0.2
55 | QSYF | ≤ 0.2
56 | MGGA | ≤ 0.2
57 | QNLH | ≤ 0.2
58 | MWLS | ≤ 0.2
59 | TNWM | ≤ 0.2
60 | RTQV | ≤ 0.2
61 | GLGT | ≤ 0.2
62 | WTWS | ≤ 0.2
63 | EDIC | ≤ 0.2
64 | AGCF | ≤ 0.2
65 | QTCI | ≤ 0.2
66 | IARP | ≤ 0.2
67 | KNFC | ≤ 0.2
68 | QLYP | ≤ 0.2
69 | PHGY | ≤ 0.2
70 | PAND | ≤ 0.2
71 | RNVY | ≤ 0.2
72 | QFTF | ≤ 0.2

Row | Variant | one-hybrid fitness for binding NBS DNA
73 | WYDA | ≤ 0.2
74 | RWIG | ≤ 0.2
75 | DGDF | ≤ 0.2
76 | SAVS | ≤ 0.2
77 | PTKK | ≤ 0.2
78 | WDHR | ≤ 0.2
79 | DAMF | ≤ 0.2
80 | QVHN | ≤ 0.2
81 | INPW | ≤ 0.2
82 | TQPI | ≤ 0.2
83 | QSLY | ≤ 0.2
84 | KETT | ≤ 0.2
85 | IYGG | ≤ 0.2
86 | AGSH | ≤ 0.2
87 | DQDR | ≤ 0.2
88 | HQDS | ≤ 0.2
89 | THNC | ≤ 0.2
90 | HQKT | ≤ 0.2
91 | KARM | ≤ 0.2
92 | HKKN | ≤ 0.2
93 | RVWV | ≤ 0.2
94 | LWNG | ≤ 0.2
95 | YNNS | ≤ 0.2
96 | CTPD | ≤ 0.2

Row | Variant | one-hybrid fitness for binding NBS DNA
97 | YPCL | ≤ 0.2
98 | CCIT | ≤ 0.2
99 | WLKG | ≤ 0.2
100 | STLG | ≤ 0.2
101 | EGQG | ≤ 0.2
102 | RTYD | ≤ 0.2
103 | GVAL | ≤ 0.2
104 | RAAT | 0.364
105 | GCTL | ≤ 0.2
106 | QPFF | ≤ 0.2
107 | QLKI | 0.234
108 | LERK | ≤ 0.2
109 | RSKV | ≤ 0.2
110 | NDVH | ≤ 0.2
111 | PTPI | ≤ 0.2
112 | SDFS | ≤ 0.2
113 | VPIN | ≤ 0.2
114 | DCHG | ≤ 0.2
115 | QMME | ≤ 0.2
116 | PTSD | ≤ 0.2
117 | RNSE | ≤ 0.2
118 | GIYN | ≤ 0.2
119 | RTSG | ≤ 0.2
120 | SKLT | ≤ 0.2

Row | Variant | one-hybrid fitness for binding NBS DNA
121 | DVKS | ≤ 0.2
122 | IMLT | ≤ 0.2
123 | VMRY | ≤ 0.2
124 | DYRG | ≤ 0.2
125 | PMGQ | ≤ 0.2
126 | HRNR | 0.255
127 | PPMW | ≤ 0.2
128 | RLPF | ≤ 0.2
129 | AWSS | ≤ 0.2
130 | DELC | ≤ 0.2
131 | CIFS | ≤ 0.2
132 | LMMR | ≤ 0.2
133 | RYHR | 0.471
134 | VVSL | ≤ 0.2
135 | AVGR | ≤ 0.2
136 | YEGT | ≤ 0.2
137 | ISRR | 0.203
138 | LYMG | ≤ 0.2
139 | SYRG | ≤ 0.2
140 | HMAC | ≤ 0.2
141 | KPSG | ≤ 0.2
142 | SDSQ | ≤ 0.2
143 | PVFG | ≤ 0.2
144 | SLML | ≤ 0.2

Row | Variant | one-hybrid fitness for binding NBS DNA
145 | MGPG | ≤ 0.2
146 | MRAA | ≤ 0.2
147 | RVVM | ≤ 0.2
148 | NQME | ≤ 0.2
149 | NYKV | ≤ 0.2
150 | DLVW | ≤ 0.2
151 | VTRG | ≤ 0.2
152 | QRWI | 0.209
153 | HWPT | ≤ 0.2
154 | YFAA | ≤ 0.2
155 | LMKK | ≤ 0.2
156 | MNYW | ≤ 0.2
157 | IENR | ≤ 0.2
158 | NRQP | ≤ 0.2
159 | QYKM | 0.369
160 | RVVA | ≤ 0.2
161 | TSSW | ≤ 0.2
162 | AVEC | ≤ 0.2
163 | ARKY | ≤ 0.2
164 | FACY | ≤ 0.2
165 | RFNS | 0.331
166 | HRPF | ≤ 0.2
167 | PHDG | ≤ 0.2
168 | ENHK | ≤ 0.2

Row | Variant | one-hybrid fitness for binding NBS DNA
169 | RDFG | ≤ 0.2
170 | MFTW | ≤ 0.2
171 | QFFY | ≤ 0.2
172 | VHQV | ≤ 0.2
173 | CDRT | ≤ 0.2
174 | APCY | ≤ 0.2
175 | LPMV | ≤ 0.2
176 | QYRS | 0.644
177 | NAAH | ≤ 0.2
178 | RSAC | ≤ 0.2
179 | SRHG | ≤ 0.2
180 | PYRE | ≤ 0.2
181 | ISSF | ≤ 0.2
182 | FNPT | ≤ 0.2
183 | ERIS | ≤ 0.2
184 | RMIW | ≤ 0.2
185 | GGTT | ≤ 0.2
186 | GAYK | ≤ 0.2
187 | CSWS | ≤ 0.2
188 | KEMV | ≤ 0.2
189 | GNNG | ≤ 0.2
190 | MHIS | ≤ 0.2
191 | NELP | ≤ 0.2
192 | WNQR | ≤ 0.2

Row | Variant | one-hybrid fitness for binding NBS DNA
193 | KEDS | ≤ 0.2
194 | QNHR | 0.247
195 | YSEE | ≤ 0.2
196 | RVIH | ≤ 0.2
197 | SSHR | 0.261
198 | PFGS | ≤ 0.2
199 | RSMF | ≤ 0.2
200 | QRMP | ≤ 0.2
201 | KRGT | 0.537
202 | PKRM | ≤ 0.2
203 | CSSR | ≤ 0.2
204 | GRFT | ≤ 0.2
205 | YVSY | ≤ 0.2
206 | VRTC | ≤ 0.2
207 | SSNG | ≤ 0.2
208 | TVQF | ≤ 0.2
209 | RLVF | ≤ 0.2
210 | RVLC | ≤ 0.2
211 | IHTV | ≤ 0.2
212 | SPCA | ≤ 0.2
213 | CTRY | ≤ 0.2
214 | QGQI | ≤ 0.2
215 | QLVQ | 0.304
216 | CLSY | ≤ 0.2

Row | Variant | one-hybrid fitness for binding NBS DNA
217 | PYFS | ≤ 0.2
218 | SNIV | ≤ 0.2
219 | VTEI | ≤ 0.2
220 | DTIS | ≤ 0.2
221 | WAMW | ≤ 0.2
222 | WGQR | ≤ 0.2
223 | TFMR | ≤ 0.2
224 | TVFS | ≤ 0.2
225 | YSCS | ≤ 0.2
226 | GCEC | ≤ 0.2
227 | GWNT | ≤ 0.2
228 | RENG | ≤ 0.2
229 | RIQG | ≤ 0.2
230 | LECR | ≤ 0.2
231 | FSCG | ≤ 0.2
232 | PQAT | ≤ 0.2
233 | PKQP | ≤ 0.2
234 | QWWW | ≤ 0.2
235 | QEAS | ≤ 0.2
236 | MHMG | ≤ 0.2
237 | FLKM | ≤ 0.2
238 | QMQF | ≤ 0.2
239 | HGGR | ≤ 0.2
240 | LTIV | ≤ 0.2

Row | Variant | one-hybrid fitness for binding NBS DNA
241 | PRMV | ≤ 0.2
242 | MRTE | ≤ 0.2
243 | LAYC | ≤ 0.2
244 | LASP | ≤ 0.2
245 | RHHT | 0.419
246 | GESR | ≤ 0.2
247 | GHPR | ≤ 0.2
248 | PAPG | ≤ 0.2
249 | HMHS | ≤ 0.2
250 | QTYI | ≤ 0.2
251 | TVQS | ≤ 0.2
252 | TFDE | ≤ 0.2
253 | KNCL | ≤ 0.2
254 | SRWS | ≤ 0.2
255 | PANQ | ≤ 0.2
256 | SYAE | ≤ 0.2
257 | ILHV | ≤ 0.2
258 | PHGV | ≤ 0.2
259 | KARV | ≤ 0.2
260 | LPNF | ≤ 0.2
261 | PQCY | ≤ 0.2
262 | HLLE | ≤ 0.2
263 | QHLS | 0.261
264 | KVQL | ≤ 0.2

Row | Variant | one-hybrid fitness for binding NBS DNA
265 | FTHR | ≤ 0.2
266 | ITCY | ≤ 0.2
267 | LTHM | ≤ 0.2
268 | GMGV | ≤ 0.2
269 | LMGE | ≤ 0.2
270 | NVPN | ≤ 0.2
271 | RCQD | ≤ 0.2
272 | KWQS | ≤ 0.2
273 | VFKY | ≤ 0.2
274 | CRSA | ≤ 0.2
275 | DHTR | ≤ 0.2
276 | AYDS | ≤ 0.2
277 | KYRD | ≤ 0.2
278 | PHEG | ≤ 0.2
279 | ANIG | ≤ 0.2
280 | LEQG | ≤ 0.2
281 | KRFS | 0.358
282 | PTHP | ≤ 0.2
283 | AWLM | ≤ 0.2
284 | WEHS | ≤ 0.2
285 | RTYI | ≤ 0.2
286 | LIML | ≤ 0.2
287 | RDWL | ≤ 0.2
288 | TPRA | ≤ 0.2

Row | Variant | one-hybrid fitness for binding NBS DNA
289 | RQID | ≤ 0.2
290 | PNKS | ≤ 0.2
291 | TYEP | ≤ 0.2
292 | LMML | ≤ 0.2
293 | VNDI | ≤ 0.2
294 | DGHR | ≤ 0.2
295 | GNSG | ≤ 0.2
296 | SVQV | ≤ 0.2
297 | LSVK | ≤ 0.2
298 | EMAV | ≤ 0.2
299 | ACKP | ≤ 0.2
300 | SGTS | ≤ 0.2
301 | RNNV | ≤ 0.2
302 | VTTI | ≤ 0.2
303 | SVPC | ≤ 0.2
304 | RNFN | ≤ 0.2
305 | CGPR | ≤ 0.2
306 | SFSE | ≤ 0.2
